87 compounds from paper PMC4336329 (PLoS ONE, 2015) can be followed below.

Among all 310,000 compounds or so, about 14,000 (4.5%) showed an effect of 50% or more. The effect is printed as a negative number. The list shows a part of the results.
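Also: peak tail current of the secondary pulse compared with the same well before compound.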

Sequence of human ether-à-go-go-related gene (hERG) potassium channel (Q12809 whole entry, looked up): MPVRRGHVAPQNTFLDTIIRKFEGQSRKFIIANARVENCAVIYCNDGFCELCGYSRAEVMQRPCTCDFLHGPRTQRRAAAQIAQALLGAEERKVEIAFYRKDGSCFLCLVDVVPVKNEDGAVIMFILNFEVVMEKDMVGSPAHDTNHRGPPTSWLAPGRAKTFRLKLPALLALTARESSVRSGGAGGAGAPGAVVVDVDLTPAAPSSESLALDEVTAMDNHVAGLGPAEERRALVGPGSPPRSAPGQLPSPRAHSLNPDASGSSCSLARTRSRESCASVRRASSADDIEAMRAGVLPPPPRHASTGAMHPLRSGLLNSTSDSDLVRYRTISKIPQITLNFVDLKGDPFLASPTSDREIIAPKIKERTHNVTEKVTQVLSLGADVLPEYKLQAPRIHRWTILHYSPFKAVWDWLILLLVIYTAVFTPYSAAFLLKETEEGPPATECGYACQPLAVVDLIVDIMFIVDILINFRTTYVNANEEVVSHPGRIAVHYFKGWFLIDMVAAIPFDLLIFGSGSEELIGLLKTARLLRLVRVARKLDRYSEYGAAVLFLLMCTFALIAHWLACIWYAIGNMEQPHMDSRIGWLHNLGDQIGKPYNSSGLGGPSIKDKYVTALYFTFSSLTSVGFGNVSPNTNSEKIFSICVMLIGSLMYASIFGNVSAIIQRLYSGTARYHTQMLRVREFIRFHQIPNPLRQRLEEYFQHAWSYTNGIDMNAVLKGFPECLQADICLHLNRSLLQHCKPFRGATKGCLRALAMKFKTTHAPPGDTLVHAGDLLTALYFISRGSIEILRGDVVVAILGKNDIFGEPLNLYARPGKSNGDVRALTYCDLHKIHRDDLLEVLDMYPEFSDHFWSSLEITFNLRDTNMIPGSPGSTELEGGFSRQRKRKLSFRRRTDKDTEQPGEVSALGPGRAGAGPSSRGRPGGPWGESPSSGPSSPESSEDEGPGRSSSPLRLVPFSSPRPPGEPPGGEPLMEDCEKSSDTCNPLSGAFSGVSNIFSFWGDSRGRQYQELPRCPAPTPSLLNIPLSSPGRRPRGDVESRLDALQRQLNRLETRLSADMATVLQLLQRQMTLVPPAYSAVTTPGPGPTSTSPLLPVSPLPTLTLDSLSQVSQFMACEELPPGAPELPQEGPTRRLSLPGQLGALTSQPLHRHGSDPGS

The assay addresses human ether-à-go-go-related gene (hERG) potassium channel (human, UniProt Q12809). The assay can be described thus: primary screen, population patch clamp on CHO cells stably expressing hERG.
Consider `COc1cc(/C=C(\C#N)c2nc3ccccc3[nH]2)ccc1Oc1ccc([N+](=O)[O-])cn1`, for which the “hERG current change (%, negative = inhibition) at 10uM” value was -5.49%.
The figure for `CCCCn1c(SCC(=O)N2CC(=O)Nc3ccccc32)nnc1-c1ccoc1C` is 0.449%.
The result for `CCOc1ccc(S(=O)(=O)N(C)CC(=O)NCc2ccco2)cc1` reads 19.9%; that for `CCC(C)(C(=O)Nc1ccccc1C)N(C(=O)CNC(C)=O)c1ccccc1C` (stereo not drawn), 13.5%; that for `C(=N\Nc1nc(N2CCCCC2)nc(N2CCCCC2)n1)/c1c[nH]c2ccccc12`, 17.8%.
As to `Cc1ccc(-c2nnn(CC(=O)N(CCCO)C(C(=O)NC3CCCC3)c3ccc(F)cc3)n2)o1` (stereo not drawn), the “hERG current change (%, negative = inhibition) at 10uM” value came out at 13.4%.
The figure for `Cc1ccnc(N2CCC(C(=O)Nc3nnc(C)s3)CC2)n1` is 6.72%.
The result for `Cl.OC(COc1ccccc1Br)CN1CCNCC1` (stereo not drawn) reads 2.1%.
Turning to `Cc1cc(OCc2cc3c(cc2Cl)OCO3)c2c(C)cc(=O)oc2c1`, the “hERG current change (%, negative = inhibition) at 10uM” value is reported as 10.7%.
Regarding `Cc1ccn2cc(CCNS(=O)(=O)c3ccc4ccccc4c3)nc2c1`, the “hERG current change (%, negative = inhibition) at 10uM” value is -39.6%.
The figure for `COc1ccc([C@H]2CC(=O)C=C(c3cc4ccccc4s3)C2)cc1OC` is 19.1%.
The figure for `COc1ccc(C2=CSC3=C(C(=O)c4cccc(S(=O)(=O)N(C)C)c4)CCN23)cc1` is -47.1%.
The result for `COC(=O)c1sccc1NC(=O)C1CC2CCC1C2` (stereo not drawn) reads 16.7%; that for `O=C(Nc1ccc(F)cc1F)N1CCCCCC1`, 9.59%.
In the case of `COc1ccc(NC(=O)C2CCC(=O)N2)cc1` (stereo not drawn), the “hERG current change (%, negative = inhibition) at 10uM” value came out at 4.32%.
The figure for `O=C(/C=C/c1ccc(O)cc1)c1ccc(O)cc1O` is 9.4%; for `Cc1sc(=NC(=O)c2ccco2)n(C)c1-c1ccccc1` it is -16.3%.
The figure for `Cc1cccc(NC(=S)NCCc2ccccc2)n1` is 7.28%; for `Nc1ccc(S(=O)(=O)NC(Cc2ccccc2)C(=O)O)cc1` (stereo not drawn) it is 19.6%.
The figure for `COC(=O)c1cc(OC)c(OC)cc1NC(=O)c1c(-c2ccccc2Cl)noc1C` is -9.48%.
Turning to `COc1ccc(CNCCCSc2ncccn2)cc1OC.Cl`, the “hERG current change (%, negative = inhibition) at 10uM” value is 11.9%.
The result for `S=C(NCCc1ccccc1)Nc1cnc2ccccc2c1` reads 2.28%.
As for `Clc1ccc2nc(-c3ccccc3)c(CN3CCOCC3)n2c1`, the “hERG current change (%, negative = inhibition) at 10uM” value was -26.1%.
The figure for `Cc1cc(C)n(C(=O)COc2ccc([N+](=O)[O-])cc2)n1` is 20%; for `C#CCOc1nc(OCC#C)nc(OCC#C)n1` it is 17.9%.
The result for `COc1ccc(-c2nc3ccccc3c(=O)n2CCOc2ccccc2C)cc1` reads 21%; that for `Cc1cc(C)n(-c2nc3c(c(=O)[nH]c(=O)n3C)n2Cc2cccc(Br)c2)n1`, 1.87%; that for `Nc1ccccc1C#Cc1ccc2[nH]ccc2c1`, 6.99%.
Regarding `COc1ccc2c(c1)CCc1c(C(=O)Nc3c(C)n(C)n(-c4ccccc4)c3=O)noc1-2`, the “hERG current change (%, negative = inhibition) at 10uM” value was found to be 4.63%.
As for `Cc1c(C(=O)OCC(=O)Nc2ccc(C(N)=O)cc2)cccc1[N+](=O)[O-]`, the “hERG current change (%, negative = inhibition) at 10uM” value worked out at 10.9%.
The result for `CC(=O)Oc1ccc(C(C)=O)c2c1OCCO2` reads 14.3%.
Take `COc1cc(CN2CCC(C(=O)N3CCCC(C)C3)CC2)cc(Br)c1O.O=C(O)C(=O)O` (stereo not drawn): the “hERG current change (%, negative = inhibition) at 10uM” value is -24.1%.
The figure for `CCOc1cc(/C=C2\SC(N)=NC2=O)ccc1O` is 15.4%; for `COCCNC(=O)CN(C(=O)c1ccc(N2CCCC2)nc1)c1ccccc1` it is 47.3%; for `CCCCCNC(=O)C1CC=CCC1C(=O)O` (stereo not drawn) it is 11.7%.
The result for `CCOC(=O)COc1cccc2c(=O)n(CC(=O)N3CCCc4ccccc43)ccc12` reads -9.8%; that for `COc1ccc(CNC(=O)CN(Cc2ccc(OC)cc2)C(=O)CCC(=O)Nc2nccs2)cc1`, -15.5%.
Turning to `O=C(N/N=C/c1c(O)n(C2CC2)c(=S)[nH]c1=O)c1ccccc1O`, the “hERG current change (%, negative = inhibition) at 10uM” value was 2.57%.
Regarding `Cc1ccc(NC(=O)CCC(=O)NNC(=O)COc2ccc([N+](=O)[O-])cc2)c(C)c1`, the “hERG current change (%, negative = inhibition) at 10uM” value is on record as 10.1%.
As to `O=C1C2C(C(=O)N1c1ccc3c(c1)OCO3)C1C=CC2C12CC2` (stereo not drawn), the “hERG current change (%, negative = inhibition) at 10uM” value is -3.37%.
The result for `Cl.O=C(c1ccco1)N(CCCN1CCOCC1)c1nc(-c2ccc(F)cc2)cs1` reads -29.4%; that for `COc1ccc(-c2cnc3c(-c4ccc(F)cc4)cnn3c2N)cc1`, 23%.
The result for `O=C(c1cccs1)N1CCN(c2ncc(Br)cn2)CC1` reads -15%.
The result for `CCCN1Cc2cccc(C(=O)NCc3ccc4c(c3)OCO4)c2C1=O` reads 3.73%.
Regarding `N#CCCCSc1nnc(CSc2nc3ccccc3s2)n1-c1ccccc1`, the “hERG current change (%, negative = inhibition) at 10uM” value is on record as -48.5%.
The result for `CCOc1ccc(S(=O)(=O)N(C)c2ccc(OCC(=O)Nc3nccs3)cc2)cc1` reads 10.1%.
The figure for `CCOC(=O)c1c(S(=O)(=O)NCCc2ccccc2)c(C)n(C)c1C` is -20.9%.
The figure for `Cn1c(/C=C/c2ccc(Br)cc2)nc2ccccc2c1=O` is 14.2%; for `CCOC(=O)CCNCc1ccc(F)cc1.Cl` it is -0.51%; for `Fc1ccc(N2CCN(c3ncnc4c3nnn4Cc3ccccc3Cl)CC2)cc1` it is 16.8%.
For the compound `Cc1ccccc1OC1CCN(C(=O)c2cc(COc3ccccc3)on2)CC1`, the “hERG current change (%, negative = inhibition) at 10uM” value was -0.372%.
The figure for `CCOCCOC(=O)c1ccc(NC(=O)C2COc3ccccc3O2)cc1` (stereo not drawn) is -33.1%; for `O=C(CCCSc1nc2sc3c(c2c(=O)[nH]1)CCC3)NCCO` it is 14.9%; for `O=C(Nc1ccc(O)cc1)c1ccc(NC(=O)C2CCCO2)cc1` (stereo not drawn) it is 18.9%.
The figure for `Cc1ccc(C)c(NC(=O)CCN2CCN(CCO)CC2)c1.Cl` is 4.08%.
In the case of `CCN(CC)c1ccc(CN(C)CCc2ccc(OC)c(OC)c2)cc1`, the “hERG current change (%, negative = inhibition) at 10uM” value is recorded as -66.1%.
The figure for `COc1ccc(-c2cnn3c(N)c(S(=O)(=O)c4ccccc4)cnc23)cc1` is 6.68%.
The result for `COc1ccc(C2CC(=O)C(CS(=O)(=O)c3ccccc3)C(=O)C2)cc1` (stereo not drawn) reads 39%.
The figure for `COc1ccc(CC(=O)N2CCN(S(=O)(=O)c3cc(Cl)ccc3Cl)CC2)cc1` is -23.7%; for `CCc1ccc2oc(-c3ccc(OC)cc3)cc(=[NH+]c3cccc(C(=O)O)c3)c2c1.F[B-](F)(F)F` it is 5%.
On to `CCNS(=O)(=O)c1ccc(NC(=O)c2c(-c3ccccc3)noc2C)cc1`, for which the “hERG current change (%, negative = inhibition) at 10uM” value was found to be 7.28%.
Turning to `Cc1ccccc1-c1cc(C(=O)NCc2ccco2)n(CC2CC(c3cccnc3)=NO2)n1` (stereo not drawn), the “hERG current change (%, negative = inhibition) at 10uM” value is -15.6%.
The figure for `CCCCCCc1ccc(N2C[C@H](Cc3ccccc3)[C@@H](CC(=O)Nc3ccccc3)C2=O)cc1` is 4.26%.
The figure for `O=C(c1cccn2c(=O)c3cc(Br)ccc3nc12)N1CCN(c2ccccn2)CC1` is -33.6%; for `CCOC(=O)N1CCN(c2ccc(S(=O)(=O)N3CCOCC3)cc2[N+](=O)[O-])CC1` it is -26.5%.
The figure for `COc1ccc(CN(C(=O)CNC(=O)c2ccco2)C(C(=O)NC2CCCC2)c2ccco2)cc1` (stereo not drawn) is -15.9%; for `Brc1ccc(-c2csc(/N=C/N3CCOCC3)n2)cc1` it is -39.6%; for `CCc1ccc(NC(=O)CSc2nnnn2-c2cccnc2)cc1` it is -15.4%.
`Cc1ccc(NC(=O)CN(C)C(C)C(=O)Nc2ccc(S(=O)(=O)N3CCCC3)cc2)cc1` (stereo not drawn): the “hERG current change (%, negative = inhibition) at 10uM” value is recorded as -7.52%.
The figure for `CN(C)/C=C(/C(=O)c1ccc(Cl)cc1)S(C)(=O)=O` is 17.3%.
With `CC(C)CC(CO)N1CCN(C(=O)c2cccc(Cl)c2)CCC1=O` (stereo not drawn), the “hERG current change (%, negative = inhibition) at 10uM” value turned out to be 7.35%.
As for `COc1ccc(C(=O)C2CCCN(C(=O)c3cccnc3SC)C2)c(C)c1` (stereo not drawn), the “hERG current change (%, negative = inhibition) at 10uM” value was 10.6%.
The result for `Cc1cccc(NC(=O)CN2C(=O)N/C(=C\c3ccc(N4CCOCC4)cc3)C2=O)c1` reads 9.92%.
The result for `N#Cc1cc(N2CCCCC2)c([N+](=O)[O-])cc1C#N` reads 10.2%; that for `Nc1ncc2c(n1)-c1cc(Cl)ccc1SC2`, -32.2%; that for `c1ccc(CN2CCN(Cc3ccc4ccccc4c3)CC2)cc1`, 5.24%.
Take `CNCCOc1ccccc1-c1ccccc1.O=C(O)C(=O)O`: the “hERG current change (%, negative = inhibition) at 10uM” value is on record as -5.68%.
The figure for `O=[N+]([O-])c1ccccc1Oc1cnc2ccccc2n1` is -9.02%; for `CC(C)CCNC(=O)C(c1ccc(O)cc1)N(C(=O)C1COc2ccccc2O1)c1cccc(O)c1` (stereo not drawn) it is 3.37%; for `Cc1ccc(S(=O)(=O)N(Cc2ccccc2)c2ccccc2C(=O)N2CCCCC2)cc1` it is -28.6%.
The figure for `O=C(Nc1ccccc1)c1nc2ccccc2s1` is -9.08%.
In the case of `COC(=O)Nc1ccc2c(c1)N(C(=O)CCN(C)C)c1ccccc1CC2.Cl`, the “hERG current change (%, negative = inhibition) at 10uM” value was found to be 15%.
The figure for `O=C(CN1C(=O)/C(=C/c2ccc(F)cc2)SC1=S)NC1C=CS(=O)(=O)C1` (stereo not drawn) is 42.7%.
The result for `COc1ccc(OC)c(NC(=O)C2CCCN(S(=O)(=O)c3cccc4nsnc34)C2)c1` (stereo not drawn) reads 0.373%; that for `CN(c1ccccc1)S(=O)(=O)c1cccc(Cl)c1Cl`, -0.0959%; that for `CC(Oc1ccccc1)C(=O)N=C1SC2CS(=O)(=O)CC2N1CCc1ccccc1` (stereo not drawn), -21.6%.
The figure for `CC1CCCCN1C(=O)Cn1c(=O)n(-c2ccc(F)cc2)c(=O)c2sccc21` (stereo not drawn) is -0.788%.
